These are yes or no findings as the source states them, for the method shown. In cells and extracts the contact can be indirect. Some results given as binding are weak or reduced against the parent protein; the word gives no strength. Where a sequence is shown, tags or fusion partners need not be part of it. Values belong to the molecule of their own block, whether it stands above or below them.
Legend:
Test in all cases: co-IP; HEK293T cells overexpressing a Flag-tagged and a GFP-tagged protein; CHAPS lysis buffer (0.01 M Chaps, 50 mM Tris-HCl pH 7.8, 150 mM NaCl); agarose-conjugated anti-Flag M2 beads overnight at 4°C, 6 washes; Western blot
[1] = biological target: T1, PPDPF-Flag (human) (UniProt Q9H3Y8)
T1 sequence: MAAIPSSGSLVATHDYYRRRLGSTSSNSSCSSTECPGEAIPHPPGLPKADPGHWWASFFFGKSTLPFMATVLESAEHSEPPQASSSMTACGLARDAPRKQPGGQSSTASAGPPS

The chains behind the UniProt entries cited, without tags or fusion partners.
UniProt Q96CX2: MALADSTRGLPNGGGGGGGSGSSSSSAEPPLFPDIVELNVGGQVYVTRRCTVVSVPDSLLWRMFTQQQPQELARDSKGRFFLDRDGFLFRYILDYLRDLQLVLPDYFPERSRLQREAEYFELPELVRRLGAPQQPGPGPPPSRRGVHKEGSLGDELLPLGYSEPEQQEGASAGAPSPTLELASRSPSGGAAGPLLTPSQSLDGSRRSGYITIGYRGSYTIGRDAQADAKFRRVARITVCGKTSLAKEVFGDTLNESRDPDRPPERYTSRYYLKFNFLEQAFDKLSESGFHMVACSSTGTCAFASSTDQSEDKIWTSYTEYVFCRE
UniProt P52945: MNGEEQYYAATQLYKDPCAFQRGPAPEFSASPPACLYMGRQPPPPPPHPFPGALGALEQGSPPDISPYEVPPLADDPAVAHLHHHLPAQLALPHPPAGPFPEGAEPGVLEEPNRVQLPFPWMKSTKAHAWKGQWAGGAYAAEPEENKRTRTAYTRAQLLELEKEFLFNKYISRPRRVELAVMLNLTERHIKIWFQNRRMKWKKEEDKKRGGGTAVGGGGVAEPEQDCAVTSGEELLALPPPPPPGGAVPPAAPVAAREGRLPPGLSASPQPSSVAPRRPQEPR
UniProt P43694: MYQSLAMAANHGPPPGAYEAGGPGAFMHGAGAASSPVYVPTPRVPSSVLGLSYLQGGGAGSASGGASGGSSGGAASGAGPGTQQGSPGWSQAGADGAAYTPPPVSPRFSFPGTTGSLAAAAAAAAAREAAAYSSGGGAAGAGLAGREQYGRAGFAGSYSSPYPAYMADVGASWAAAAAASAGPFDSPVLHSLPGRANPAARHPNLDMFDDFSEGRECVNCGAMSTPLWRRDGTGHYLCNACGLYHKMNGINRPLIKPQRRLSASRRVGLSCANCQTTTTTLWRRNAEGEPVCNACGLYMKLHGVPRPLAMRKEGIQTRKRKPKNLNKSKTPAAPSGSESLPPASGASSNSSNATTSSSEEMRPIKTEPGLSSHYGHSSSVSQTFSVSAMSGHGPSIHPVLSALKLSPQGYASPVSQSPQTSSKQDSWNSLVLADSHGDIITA

[2] = biological target: T2, FOXA1-Flag (UniProt P55317)
T2 sequence: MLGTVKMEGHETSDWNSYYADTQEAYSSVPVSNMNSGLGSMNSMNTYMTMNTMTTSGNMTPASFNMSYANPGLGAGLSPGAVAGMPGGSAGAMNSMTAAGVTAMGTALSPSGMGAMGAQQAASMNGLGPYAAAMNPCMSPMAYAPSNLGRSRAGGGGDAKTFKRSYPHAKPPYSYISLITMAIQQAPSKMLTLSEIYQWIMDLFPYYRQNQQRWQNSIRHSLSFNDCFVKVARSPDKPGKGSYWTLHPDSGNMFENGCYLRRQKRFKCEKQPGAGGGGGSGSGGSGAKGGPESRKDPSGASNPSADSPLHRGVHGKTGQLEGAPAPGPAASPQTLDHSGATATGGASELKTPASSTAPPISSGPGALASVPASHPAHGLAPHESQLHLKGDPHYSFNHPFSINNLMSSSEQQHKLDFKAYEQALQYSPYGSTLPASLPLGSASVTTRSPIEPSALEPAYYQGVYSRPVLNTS

[3] = biological target: T3, FOXA2-Flag (UniProt Q9Y261)
T3 sequence: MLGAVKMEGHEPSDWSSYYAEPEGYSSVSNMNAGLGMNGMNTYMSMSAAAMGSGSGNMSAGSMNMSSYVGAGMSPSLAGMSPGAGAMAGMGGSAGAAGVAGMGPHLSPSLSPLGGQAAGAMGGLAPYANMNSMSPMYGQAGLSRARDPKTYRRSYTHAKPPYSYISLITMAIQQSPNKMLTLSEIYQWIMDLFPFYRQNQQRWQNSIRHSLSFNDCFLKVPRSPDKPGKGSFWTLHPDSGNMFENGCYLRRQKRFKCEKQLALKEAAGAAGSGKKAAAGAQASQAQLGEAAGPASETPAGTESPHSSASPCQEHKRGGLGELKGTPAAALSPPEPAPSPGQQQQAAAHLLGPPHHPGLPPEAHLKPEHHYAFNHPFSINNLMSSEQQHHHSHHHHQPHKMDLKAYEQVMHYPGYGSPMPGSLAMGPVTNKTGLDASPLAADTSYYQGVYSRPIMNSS

[4] = biological target: KCTD12-Flag (human) (UniProt Q96CX2)
[5] = biological target: T4, MAGED1-Flag (human) (UniProt Q9Y5V3)
T4 sequence: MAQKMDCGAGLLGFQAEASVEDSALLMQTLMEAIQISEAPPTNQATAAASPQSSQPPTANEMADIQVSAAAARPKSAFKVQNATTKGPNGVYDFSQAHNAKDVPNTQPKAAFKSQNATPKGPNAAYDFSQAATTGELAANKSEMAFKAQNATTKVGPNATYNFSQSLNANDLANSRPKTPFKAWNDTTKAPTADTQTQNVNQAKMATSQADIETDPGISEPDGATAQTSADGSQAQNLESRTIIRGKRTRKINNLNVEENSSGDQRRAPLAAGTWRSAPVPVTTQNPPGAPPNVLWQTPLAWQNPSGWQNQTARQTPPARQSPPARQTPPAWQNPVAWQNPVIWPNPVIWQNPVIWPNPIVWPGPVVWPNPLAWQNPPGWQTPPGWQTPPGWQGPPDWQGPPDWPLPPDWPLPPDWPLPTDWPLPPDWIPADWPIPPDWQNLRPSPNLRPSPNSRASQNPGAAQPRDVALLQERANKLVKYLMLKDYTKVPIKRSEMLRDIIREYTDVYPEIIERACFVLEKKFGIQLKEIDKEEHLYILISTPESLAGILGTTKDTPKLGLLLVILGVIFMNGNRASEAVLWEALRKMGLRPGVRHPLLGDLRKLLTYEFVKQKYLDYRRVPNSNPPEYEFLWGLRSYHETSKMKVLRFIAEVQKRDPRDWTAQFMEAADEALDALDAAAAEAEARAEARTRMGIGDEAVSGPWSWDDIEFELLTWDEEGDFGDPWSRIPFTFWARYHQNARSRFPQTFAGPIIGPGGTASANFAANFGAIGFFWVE

[6] = biological target: T5, NKX6-1-Flag (UniProt P78426)
T5 sequence: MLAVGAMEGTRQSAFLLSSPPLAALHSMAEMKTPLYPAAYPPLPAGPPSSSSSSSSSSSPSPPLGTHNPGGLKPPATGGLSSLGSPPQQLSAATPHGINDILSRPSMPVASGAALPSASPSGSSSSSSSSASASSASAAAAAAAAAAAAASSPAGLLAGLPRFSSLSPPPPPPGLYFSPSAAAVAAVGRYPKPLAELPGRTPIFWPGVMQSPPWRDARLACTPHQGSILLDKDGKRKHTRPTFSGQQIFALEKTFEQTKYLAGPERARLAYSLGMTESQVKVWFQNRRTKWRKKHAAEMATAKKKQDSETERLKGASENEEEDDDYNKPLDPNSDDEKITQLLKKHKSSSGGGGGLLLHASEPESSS

[7] = biological target: PDX1-Flag (UniProt P52945)

- binding [1]: no binding
Molecule: GATA4-GFP (from UniProt P43694 1-442)

- binding [1]: binds
Molecule: KCTD12-GFP (from UniProt Q96CX2 1-325)

- binding [2]: no binding
- binding [3]: no binding
- binding [4]: binds
- binding [5]: binds
- binding [6]: no binding
- binding [7]: no binding
B1: PPDPF-GFP (protein, UniProt Q9H3Y8 1-114)
chain: T1 sequence

- binding [1]: binds
B2: MAGED1-GFP (protein, UniProt Q9Y5V3 1-778)
chain: T4 sequence
